From PubChem BioAssay AID485281 (National Center for Advancing Translational Sciences (NCATS), 2010)
Where “and” joins values, the source holds several entries; their conditions need not be identical. Equal entries are not always repeated. About 260 (0.074%) of roughly 350,000 compounds were called active. The inconclusive results got no clear call from the source; some entries with a clear call stand among them for comparison. The call rests on the fitted dose curve; in most records, active means well fitted inhibition curve with a large enough effect; inconclusive means small, poorly fitted or top-dose-only effect; inactive means no such curve, though single readings can be large or run the other way. A potency beside an inconclusive call is a rough fit, not a confirmed value.

target: Ferritin light chain (Equus caballus) (UniProt P02791); assay: qHTS Assay for Identification of Novel General Anesthetics; details: apoferritin/1-aminoanthracene competitive binding, fluorescence; series mostly up to 77.5 µM; further: nearly all actives have a fitted effect of over 20% in size
Procedure, shortened: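 Horse-spleen apoferritin (10 uM) in 50% saturated 1-aminoanthracene in PBS was incubated 10 min at room temperature with compound. Fluorescence (ex 380, em 535 nm) was normalized to free and bound 1-AMA, with concentration-response fitted by a four-parameter Hill equation.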
Potency means the concentration at half of the fitted maximal effect; tags describe the fitted curve by direction and shape.

Chain of UniProt P02791 (P02791 whole entry, looked up): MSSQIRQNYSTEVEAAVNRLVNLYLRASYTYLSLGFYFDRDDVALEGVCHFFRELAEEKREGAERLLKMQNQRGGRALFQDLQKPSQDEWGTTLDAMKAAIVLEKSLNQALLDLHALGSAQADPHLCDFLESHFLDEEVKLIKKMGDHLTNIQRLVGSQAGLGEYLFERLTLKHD

| SMILES | Potency |
| --- | --- |
| CC(c1ccc(F)cc1)n1cc(C(=O)NCc2ccc3c(c2)OCO3)nn1 (stereo unspecified) | inconclusive: 3.55 µM [inhibitor, full curve] |
| Cc1nc2cc(C(F)(F)F)ccc2n1C1CCN(Cc2nnnn2Cc2ccc3c(c2)OCO3)CC1 | inconclusive: 20 µM [inhibitor, partial curve] |
| CC1CCCN(c2ccc(C(=O)N3CCC4(CC3)OCCO4)cc2[N+](=O)[O-])C1 (stereo unspecified) | inactive |
| COc1ccc(NC(=O)CN2CC=C(c3ccccc3)CC2)cc1S(=O)(=O)N1CCOCC1 | inactive |
| C[C@H](NC(=O)[C@@H](N)Cc1ccc(O)cc1)C(=O)NCC(=O)N(C)[C@@H](Cc1ccccc1)C(=O)NCCO | inactive |
| COc1ccccc1/C=C1\C(=O)NC(=S)N(c2ccccc2)C1=O | inactive |
| Fc1ccc(C(OCCN2CCN(C/C=C/c3ccccc3)CC2)c2ccc(F)cc2)cc1 | inactive |
| O=c1[nH]c(=O)n(-c2cccc(Cl)c2)c(O)c1/C=N/c1ccccn1 | inconclusive: 35.5 µM [inhibitor, single point] |
| FC(F)(F)c1ccc(CSc2ccccn2)cc1 | inconclusive: 25.1 µM [inhibitor, partial curve] |
| CCC(=O)Nc1ccc(Cl)c(Cl)c1 | inconclusive: 31.6 µM [inhibitor, partial curve] |
| CC(=O)O[C@@]12CO[C@@H]1C[C@@H](O)[C@@]1(C)C(=O)[C@H](O)C3=C(C)[C@@H](OC(=O)[C@H](O)[C@@H](NC(=O)c4ccccc4)c4ccccc4)C[C@@](O)([C@@H](OC(=O)c4ccccc4)C12)C3(C)C (stereo partly specified) | inconclusive: 8.91 µM [inhibitor, partial curve] |
| CC(=NCCCN1CCOCC1)c1c(O)n(Cc2ccccc2)c(=O)[nH]c1=O | inactive |
| O=c1[nH]c(=O)n(-c2ccccc2)c(O)c1/C=C1/C(c2ccccc2)=Nc2ccccc21 | inconclusive: 50.1 µM [inhibitor, single point] |
| CCC(C)NC(=O)c1c(N)n(CC2CCCO2)c2nc3ccccc3nc12 (stereo unspecified) | inactive |
| CCCCN1C(=O)NC(=O)C2(Cc3cc(C)ccc3N(C)C2)C1=O (stereo unspecified) | inconclusive: 11.2 µM [inhibitor, partial curve] |
| c1ccc(C(c2ccccc2)N2CCN(c3ccc4ccccc4n3)CC2)cc1 | inactive |
| Cc1cc(Cl)ccc1C(=O)C1CCCN(C2CCSCC2)C1 (stereo unspecified) | inconclusive: 14.1 µM [inhibitor, partial curve] |
| COCCNCCOc1ccc(C(C)(C)c2ccccc2)cc1 | inconclusive: 35.5 µM [inhibitor, single point] |
| COC(=O)C(C)Oc1cc(C)cc2oc(=O)c3c(c12)CCCC3 (stereo unspecified) | inconclusive: 11.2 µM [inhibitor, partial curve] |
| COC(=O)C1C2c3ccccc3OC1(C)N=c1s/c(=C/c3cn(C)nc3C)c(=O)n12 (stereo unspecified) | inconclusive: 25.1 µM [inhibitor, partial curve] |
| CCNc1cc(N2CCN(C)CC2)ccc1[N+](=O)[O-] | inactive |

| SMILES | Potency |
| --- | --- |
| COc1ccc(N2C(=O)/C(=C/c3cc(C)n(-c4ccc(C)cn4)c3C)C(=O)NC2=S)c(OC)c1 | inconclusive: 35.5 µM [inhibitor, partial curve] |
| CC(C)OCCCNC(=O)c1c(N)n(Cc2cccs2)c2nc3ccccc3nc12 | inactive |
| COc1ccccc1N1C(=O)NC(=O)/C(=C\c2cnn(-c3ccccc3)c2)C1=O | inconclusive: 28.2 µM [inhibitor, single point] |
| C/C=C(\C)C(=O)OC1C(C)=C2C(C1OC(=O)CCCCC)C(C)(OC(C)=O)CC(OC(=O)CCC)C1(O)C2OC(=O)C1(C)O (stereo unspecified) | inconclusive: 7.08 µM [inhibitor, full curve] |
| CCCCOc1ccc(CCN)cc1Cl | inconclusive: 50.1 µM [inhibitor, single point] |
| CC(C)c1nn2c(=O)cc(COC(=O)Cc3ccccc3)nc2s1 | inconclusive: 50.1 µM [inhibitor, single point] |
| O=C(Nc1ccccc1)c1ccccc1I | inactive |
| Cc1ccc(Cn2nc(C)c(C=O)c2Cl)cc1 | inconclusive: 35.5 µM [inhibitor, partial curve] |
| CCCCN1C(=O)NC(=O)/C(=C/c2cnc(SC)nc2)C1=O | inconclusive: 44.7 µM [inhibitor, single point] |
| CCN(CC)c1ccc([N+](=O)[O-])c2cccnc12 | inconclusive: 39.8 µM [inhibitor, partial curve] |
| C[C@]12CC[C@H]3C(=CCc4cc(O)ccc43)[C@@H]1CCC2=O | inconclusive: 22.4 µM [inhibitor, partial curve] |
| CC(=O)Nc1ccc(S(=O)(=O)N2CCSC2c2ccc(C)cc2)cc1 (stereo unspecified) | inconclusive: 8.91 µM [inhibitor, partial curve, poor fit] |
| Oc1ccc(Cl)cc1Cc1cc(Cl)ccc1O | inconclusive: 22.4 µM [inhibitor, partial curve] and inconclusive: 8.91 µM [inhibitor, partial curve] |
| O=[N+]([O-])c1ccccc1CNCCc1ccc(F)cc1 | inconclusive: 35.5 µM [inhibitor, partial curve] |
| O=C1C2C3CCC(C3)C2C(=O)N1c1ccc(OS(=O)(=O)c2ccccc2)cc1 (stereo unspecified) | inconclusive: 15.8 µM [inhibitor, partial curve] |
| COc1cc(C(C)=O)ccc1OCc1cc(C(=O)N(C)CCC2CCCCO2)no1 (stereo unspecified) | inconclusive: 31.6 µM [inhibitor, single point] |
| S=C1CN=C(c2ccccc2)c2cc(Cl)ccc2N1 | inconclusive: 50.1 µM [inhibitor, single point] |
| CN(C)C(=O)Oc1c(Cl)cc(Cl)c2ccccc12 | inconclusive: 56.2 µM [inhibitor, partial curve] |
| O=c1[nH]c(=S)n(Cc2ccco2)c(O)c1C=NCc1cccs1 | inconclusive: 14.1 µM [inhibitor, partial curve] |
| C[C@H]1COC2=C1C(=O)C(=O)c1c2ccc2c1CCCC2(C)C | inactive and inconclusive: 50.1 µM [inhibitor, single point] |
